# Tested on: U2OS(GIGI) cells
# Assay: GIGI in lysates, stably transfected U2OS(GIGI) cells
# Type: cell-based
# Details: Dex-labeled peptides, 24 h, read-out: EC50 (eGFP expression, GIGI)
# Text: RFUs are expressed±standard deviation (Excel). The maximum induction level is defined as RFUmax. Data were processed using Kaleidagraph and GraphPad Prism software. RFU=([I530]/[I580])−([I′530]/[I′580]) (1)
# Y=Ymin+(Ymax−Ymin)/(1+10^logEC50-X) (2)
row,EC50 [nM],Substance
1,73.5,K^DexFQCRICMRNFSDRSNLSRHIRTHTP (KFQCRICMRNFSDRSNLSRHIRTHTP; N-terminal dexamethasone-labeled Lys) [ZFN1^Dex]
2,71.3,K^DexFACDICGRKFATSGNLTRHTKIHLR (KFACDICGRKFATSGNLTRHTKIHLR; N-terminal dexamethasone-labeled Lys) [ZFN4^Dex]
3,85.6,K^DexFQCRICMRNFSRSDNLARHIRTHTP (KFQCRICMRNFSRSDNLARHIRTHTP; N-terminal dexamethasone-labeled Lys) [ZFN3^Dex]
4,76.7,K^DexFACDICGRKFAISSNLNSHTKIHTP (KFACDICGRKFAISSNLNSHTKIHTP; N-terminal dexamethasone-labeled Lys) [ZFN2^Dex]
